Experimental data published in the supplement of paper PMC5895741.

B1: MS2 coat protein; the commonest letter at each place (parent)
chain: MASNFTQFVLVDNGGTGDVTVAPSNFANGVAEWISSNSRSQAYKVTCSVRQSSAQNRKYTIKVEVPKVATQTVGGVELPVAAWRSYLNMELTIPIFATNSDCELIVKAMQGLLKDGNPIPSAIAANSGIY

Variants of: B1
Assay: apparent fitness score (VLP assembly selection enrichment vs plasmid library) (log10 ratio); higher = better expression / assembly into well-formed VLPs
Experimental: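 SyMAPS: NNK codon saturation mutagenesis of every codon of the MS2 bacteriophage coat protein (EMPIRIC cloning), expressed overnight in E. coli DH10B at 37 °C. Assembled VLPs were selected by ammonium sulfate precipitation plus FPLC size-exclusion chromatography, and the encapsidated RNA was sequenced. Apparent fitness score = log10 of the mean over 3 biological replicates of (percent abundance in the VLP library / percent abundance in the plasmid library). Variants absent after selection were set to 0.0001, i.e. -4.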
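Further: counts from Illumina MiSeq reads, cDNA of packaged RNA versus plasmid DNA taken before selection, each replicate independent from library construction onward, expression induced with 0.1% arabinose.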

**Q.** Which “apparent fitness score (log10)” value does the source give for MASNFTQFVLVDNGGTGDVTVAPSNFANGVAEWISSNSRSQAHKVTCSVRQSSAQNRKYTIKVEVPKVATQTVGGVELPVAAWRSYLNMELTIPIFATNSDCELIVKAMQGLLKDGNPIPSAIAANSGIY here?
**A.** 0.108

**Q.** With MASNFTQFVLVDNGGTGDVTVAPSNFANGVAEWISSNSRSQAIKVTCSVRQSSAQNRKYTIKVEVPKVATQTVGGVELPVAAWRSYLNMELTIPIFATNSDCELIVKAMQGLLKDGNPIPSAIAANSGIY as the variant, how does the “apparent fitness score (log10)” value read?
**A.** < -4

**Q.** For MASNFTQFVLVDNGGTGDVTVAPSNFANGVAEWISSNSRSQAKKVTCSVRQSSAQNRKYTIKVEVPKVATQTVGGVELPVAAWRSYLNMELTIPIFATNSDCELIVKAMQGLLKDGNPIPSAIAANSGIY, which “apparent fitness score (log10)” value is on record?
**A.** < -4

**Q.** For MASNFTQFVLVDNGGTGDVTVAPSNFANGVAEWISSNSRSQALKVTCSVRQSSAQNRKYTIKVEVPKVATQTVGGVELPVAAWRSYLNMELTIPIFATNSDCELIVKAMQGLLKDGNPIPSAIAANSGIY, which “apparent fitness score (log10)” value is on record?
**A.** < -4

**Q.** For MASNFTQFVLVDNGGTGDVTVAPSNFANGVAEWISSNSRSQAMKVTCSVRQSSAQNRKYTIKVEVPKVATQTVGGVELPVAAWRSYLNMELTIPIFATNSDCELIVKAMQGLLKDGNPIPSAIAANSGIY, which “apparent fitness score (log10)” value is on record?
**A.** -1.02

**Q.** Which “apparent fitness score (log10)” value does the source give for MASNFTQFVLVDNGGTGDVTVAPSNFANGVAEWISSNSRSQANKVTCSVRQSSAQNRKYTIKVEVPKVATQTVGGVELPVAAWRSYLNMELTIPIFATNSDCELIVKAMQGLLKDGNPIPSAIAANSGIY here?
**A.** < -4

**Q.** With MASNFTQFVLVDNGGTGDVTVAPSNFANGVAEWISSNSRSQAPKVTCSVRQSSAQNRKYTIKVEVPKVATQTVGGVELPVAAWRSYLNMELTIPIFATNSDCELIVKAMQGLLKDGNPIPSAIAANSGIY as the variant, how does the “apparent fitness score (log10)” value read?
**A.** -1.3

**Q.** For MASNFTQFVLVDNGGTGDVTVAPSNFANGVAEWISSNSRSQAQKVTCSVRQSSAQNRKYTIKVEVPKVATQTVGGVELPVAAWRSYLNMELTIPIFATNSDCELIVKAMQGLLKDGNPIPSAIAANSGIY, which “apparent fitness score (log10)” value is on record?
**A.** < -4

**Q.** For MASNFTQFVLVDNGGTGDVTVAPSNFANGVAEWISSNSRSQARKVTCSVRQSSAQNRKYTIKVEVPKVATQTVGGVELPVAAWRSYLNMELTIPIFATNSDCELIVKAMQGLLKDGNPIPSAIAANSGIY, which “apparent fitness score (log10)” value is on record?
**A.** < -4

**Q.** For MASNFTQFVLVDNGGTGDVTVAPSNFANGVAEWISSNSRSQASKVTCSVRQSSAQNRKYTIKVEVPKVATQTVGGVELPVAAWRSYLNMELTIPIFATNSDCELIVKAMQGLLKDGNPIPSAIAANSGIY, which “apparent fitness score (log10)” value is on record?
**A.** < -4

**Q.** For MASNFTQFVLVDNGGTGDVTVAPSNFANGVAEWISSNSRSQATKVTCSVRQSSAQNRKYTIKVEVPKVATQTVGGVELPVAAWRSYLNMELTIPIFATNSDCELIVKAMQGLLKDGNPIPSAIAANSGIY, which “apparent fitness score (log10)” value is on record?
**A.** < -4

**Q.** With MASNFTQFVLVDNGGTGDVTVAPSNFANGVAEWISSNSRSQAVKVTCSVRQSSAQNRKYTIKVEVPKVATQTVGGVELPVAAWRSYLNMELTIPIFATNSDCELIVKAMQGLLKDGNPIPSAIAANSGIY as the variant, how does the “apparent fitness score (log10)” value read?
**A.** -0.845

**Q.** Which “apparent fitness score (log10)” value does the source give for MASNFTQFVLVDNGGTGDVTVAPSNFANGVAEWISSNSRSQAWKVTCSVRQSSAQNRKYTIKVEVPKVATQTVGGVELPVAAWRSYLNMELTIPIFATNSDCELIVKAMQGLLKDGNPIPSAIAANSGIY here?
**A.** < -4

**Q.** Which “apparent fitness score (log10)” value does the source give for MASNFTQFVLVDNGGTGDVTVAPSNFANGVAEWISSNSRSQAYAVTCSVRQSSAQNRKYTIKVEVPKVATQTVGGVELPVAAWRSYLNMELTIPIFATNSDCELIVKAMQGLLKDGNPIPSAIAANSGIY here?
**A.** -0.637

**Q.** Which “apparent fitness score (log10)” value does the source give for MASNFTQFVLVDNGGTGDVTVAPSNFANGVAEWISSNSRSQAYCVTCSVRQSSAQNRKYTIKVEVPKVATQTVGGVELPVAAWRSYLNMELTIPIFATNSDCELIVKAMQGLLKDGNPIPSAIAANSGIY here?
**A.** 0.0309

**Q.** Which “apparent fitness score (log10)” value does the source give for MASNFTQFVLVDNGGTGDVTVAPSNFANGVAEWISSNSRSQAYDVTCSVRQSSAQNRKYTIKVEVPKVATQTVGGVELPVAAWRSYLNMELTIPIFATNSDCELIVKAMQGLLKDGNPIPSAIAANSGIY here?
**A.** < -4

**Q.** With MASNFTQFVLVDNGGTGDVTVAPSNFANGVAEWISSNSRSQAYEVTCSVRQSSAQNRKYTIKVEVPKVATQTVGGVELPVAAWRSYLNMELTIPIFATNSDCELIVKAMQGLLKDGNPIPSAIAANSGIY as the variant, how does the “apparent fitness score (log10)” value read?
**A.** < -4

**Q.** For MASNFTQFVLVDNGGTGDVTVAPSNFANGVAEWISSNSRSQAYFVTCSVRQSSAQNRKYTIKVEVPKVATQTVGGVELPVAAWRSYLNMELTIPIFATNSDCELIVKAMQGLLKDGNPIPSAIAANSGIY, which “apparent fitness score (log10)” value is on record?
**A.** -0.00448

**Q.** With MASNFTQFVLVDNGGTGDVTVAPSNFANGVAEWISSNSRSQAYGVTCSVRQSSAQNRKYTIKVEVPKVATQTVGGVELPVAAWRSYLNMELTIPIFATNSDCELIVKAMQGLLKDGNPIPSAIAANSGIY as the variant, how does the “apparent fitness score (log10)” value read?
**A.** -1.64

**Q.** With MASNFTQFVLVDNGGTGDVTVAPSNFANGVAEWISSNSRSQAYHVTCSVRQSSAQNRKYTIKVEVPKVATQTVGGVELPVAAWRSYLNMELTIPIFATNSDCELIVKAMQGLLKDGNPIPSAIAANSGIY as the variant, how does the “apparent fitness score (log10)” value read?
**A.** < -4

**Q.** Which “apparent fitness score (log10)” value does the source give for MASNFTQFVLVDNGGTGDVTVAPSNFANGVAEWISSNSRSQAYIVTCSVRQSSAQNRKYTIKVEVPKVATQTVGGVELPVAAWRSYLNMELTIPIFATNSDCELIVKAMQGLLKDGNPIPSAIAANSGIY here?
**A.** -0.541

**Q.** Which “apparent fitness score (log10)” value does the source give for MASNFTQFVLVDNGGTGDVTVAPSNFANGVAEWISSNSRSQAYLVTCSVRQSSAQNRKYTIKVEVPKVATQTVGGVELPVAAWRSYLNMELTIPIFATNSDCELIVKAMQGLLKDGNPIPSAIAANSGIY here?
**A.** -0.00397
